In all, about 120,000 compounds went through this assay and about 5,300 (4.4%) were called active. The shares of active, inactive and inconclusive entries below differ from those in the screen. Calls come from the whole dose curve; as a rule, active = well fitted inhibition curve with a large enough effect; inconclusive = small, poorly fitted or top-dose-only effect; inactive = no such curve, though single readings can be large or run the other way. Where the call is inconclusive, the potency comes from a doubtful curve fit.
Assay: qHTS Primary assay for Inhibitors of Plasmodium falciparum Dd2 growth in vitro; note: nearly all actives have a fitted effect of over 65% in size;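 for activity, negative = inhibition: plate controls were DMSO vehicle for no effect and reference drug for full effect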
Conditions: P. falciparum Dd2 growth, SYBR Green, 72 h; activity, negative = inhibition: at 28.9 µM (top of the series) unless noted; series mostly up to 28.9 µM
Summary of the method: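 Readout: SYBR Green fluorescence, 485 nm excitation, 535 nm emission, after ~16 h lysis at 37C. Before that, Dd2-infected red cells (2.5% hematocrit) grew 72 h with compound, 29 uM top final concentration.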
Potency is the fitted concentration of half-maximal effect; tags give direction and shape of the fitted curve.

Question: Which Potency does the source give for `CC(C)C(=O)N1Cc2ccccc2CC2(CCCN2Cc2ccncc2)C1` (stereo unspecified) here?
Answer: The Potency was inconclusive: 20 µM [inhibitor, single point].

Question: For `COc1cc(OC)c(NC(=O)CCc2nc(C3=CCN(Cc4cccc(Cl)c4)CC3)no2)cc1Cl`, which Potency is on record?
Answer: Its Potency is “inactive”.

Question: Which Potency does the source give for `COc1ccc(C(=O)N2CCN(C(=O)c3nnn4c3COC(c3ccc(Cl)cc3)C4)CC2)c(C)c1` (stereo unspecified) here?
Answer: Its Potency is “inactive”.

Question: With `COc1cc(Cl)c(NS(=O)(=O)c2cc3[nH]c(=O)c(=O)[nH]c3cc2C)c(OC)c1` as the molecule, how does the Potency read?
Answer: Its Potency is inconclusive: 14.1 µM [inhibitor, single point].

Question: Which Potency does the source give for `Cc1ccc(-n2c(=O)c3c4c(sc3n(CC(=O)C(C)(C)C)c2=O)CCCCC4)cc1C` here?
Answer: Its Potency is inconclusive: 17.8 µM [inhibitor, single point].

Question: Which Potency does the source give for `O=C1NC(=NC2CCCCC2)C2(CCCN([S+](=O)([O-])c3ccccc3)C2)N1c1cccnc1` (stereo unspecified) here?
Answer: The Potency was inconclusive: 0.251 µM [inhibitor, full curve].

Question: With `N#Cc1ccc(C(=O)N2CCOC[C@H](Oc3ccc(C(F)(F)F)cc3)C2)cc1` as the molecule, how does the Potency read?
Answer: The Potency was “inactive”.

Question: For `CCOc1ccccc1C(=O)N1CCCN(c2cc(-c3ccc(Cl)cc3)[nH]n2)CC1`, which Potency is on record?
Answer: Its Potency is inconclusive: 4.47 µM [inhibitor, partial curve, poor fit].

Question: Which Potency does the source give for `CCn1ccc(C(=O)N2CCC(Oc3ccccc3)C2)n1` (stereo unspecified) here?
Answer: The Potency was “inactive”.

Question: Which Potency does the source give for `CCOc1ccc(-c2cc3nc(C4CCN(C(=O)OC(C)(C)C)CC4)c(C(=O)Nc4cccc(C(F)(F)F)c4)cn3n2)cc1` here?
Answer: The Potency was inconclusive: 10 µM [inhibitor, single point].

Question: For `CC1=C[C@@H](CNC(=O)c2ccnc(Cl)c2)[C@H](C(C)C)C[C@H]1Cc1nc2ccc(C)cc2[nH]1`, which Potency is on record?
Answer: Its Potency is inconclusive: 3.98 µM [inhibitor, single point].

Question: For `CCOC(=O)CCCOc1cccn2c(=O)c(-c3cc(C)n(-c4cccc(C)c4)n3)c(C)nc12`, which Potency is on record?
Answer: Its Potency is inconclusive: 10 µM [inhibitor, partial curve, poor fit].

Question: For `O=C(NCCC1CCN(C(=O)Nc2ccccc2)CC1)c1ccccc1`, which Potency is on record?
Answer: The Potency was inconclusive: 17.8 µM [inhibitor, single point].

Question: With `CN1CCC2(C1)CN(CC1CC1)c1ccc(C(=O)NCc3cccs3)cc12` (stereo unspecified) as the molecule, how does the Potency read?
Answer: The Potency was inconclusive: 11.2 µM [inhibitor, single point].

Question: For `COc1ccc(-c2noc([C@@H]3C[C@@H](O)CN3Cc3ccccc3)n2)cc1`, which Potency is on record?
Answer: Its Potency is inconclusive: 22.4 µM [inhibitor, partial curve, poor fit].

Question: For `CCc1ccc(Nc2nc(-c3cc4cccc(OC)c4oc3=O)c(CC)s2)cc1`, which Potency is on record?
Answer: The Potency was active: 11.2 µM.

Question: With `Cc1nc(N2CCC(NCCc3cccnc3)CC2)c2ccsc2n1` as the molecule, how does the Potency read?
Answer: The Potency was inconclusive: 12.6 µM [inhibitor, single point].

Question: Which Potency does the source give for `CCOC(=O)c1ccc(NC(=O)Nc2cc3c(cc2N2CCCCC2)n(CC)c(=O)n3CC)cc1` here?
Answer: Its Potency is inconclusive: 5.62 µM [inhibitor, partial curve, poor fit].

Question: With `Cc1cccc(OC(=O)c2snnc2C)c1C` as the molecule, how does the activity, negative = inhibition read?
Answer: Its activity, negative = inhibition is inconclusive: -62.9% [inhibitor] [at 0.594 µM].

Question: With `O=C1N(Cc2cccc(F)c2F)CCCC1(O)CNCc1ccccc1` (stereo unspecified) as the molecule, how does the Potency read?
Answer: The Potency was inconclusive: 11.2 µM [inhibitor, single point].

Question: Which Potency does the source give for `COc1ccc(NC(=O)N2C[C@@H](F)C[C@H]2C(=O)N2CCCCC2)cc1OC` here?
Answer: Its Potency is “inactive”.

Question: With `Cc1nn(-c2ccc(F)cc2)c(C)c1[C@@H]1C=C[C@@H](NC(=O)c2ccco2)C1` as the molecule, how does the Potency read?
Answer: Its Potency is active: 6.31 µM.

Question: Which Potency does the source give for `CCOC(=O)Cc1ccc(NC(=O)Nc2nnc(N3CCCCC3C)s2)cc1` (stereo unspecified) here?
Answer: Its Potency is inconclusive: 11.2 µM [inhibitor, partial curve].

Question: Which Potency does the source give for `CO[C@H]1[C@H](NC(=O)c2cc3ccccc3n2C)c2ccccc2C12CCNCC2` here?
Answer: The Potency was active: 7.94 µM.

Question: Which Potency does the source give for `COc1ccc(C(=O)N2CCC3(CC2)N(C)C(=O)CS3(=O)=O)cc1F` here?
Answer: The Potency was “inactive”.

Question: With `CCCn1c(=N)c(C(=O)NC(C)c2ccccc2)cc2c(=O)n3ccccc3nc21` (stereo unspecified) as the molecule, how does the Potency read?
Answer: The Potency was inconclusive: 10 µM [inhibitor, single point].

Question: With `O=C(c1ccc(Cl)cc1)n1nc(-c2ccccc2)nc1NCc1ccco1` as the molecule, how does the Potency read?
Answer: The Potency was “inactive”.

Question: With `COC1C(=O)N(CC2CC2)C12CCN(S(=O)(=O)c1c(C)nn(C)c1C)CC2` (stereo unspecified) as the molecule, how does the Potency read?
Answer: The Potency was “inactive”.

Question: With `Cn1c(=O)n(C)c2cc(CNCc3ccccc3Cl)ccc21` as the molecule, how does the Potency read?
Answer: The Potency was inconclusive: 8.91 µM [inhibitor, partial curve, poor fit].

Question: With `Cc1ccc(CN2CCc3nc(C(C)C)nc(-c4ccc(O)cc4)c3CC2)cc1` as the molecule, how does the Potency read?
Answer: The Potency was inconclusive: 1.12 µM [inhibitor, partial curve, poor fit].

Question: For `Cc1ccc(-n2nc3c(N4CCCC(C(=O)NCc5ccccc5C)C4)nnc(C)c3c2C)cc1` (stereo unspecified), which Potency is on record?
Answer: Its Potency is inconclusive: 10 µM [inhibitor, partial curve, poor fit].

Question: With `COc1ccc(C(=O)Nc2ccc([C@H]3OCC(=O)N(C(C)C)[C@@H]3CO)cc2)cc1` as the molecule, how does the Potency read?
Answer: The Potency was inconclusive: 0.112 µM [inhibitor, full curve, poor fit].

Question: Which Potency does the source give for `O=C(COc1ccc(F)cc1)NCc1nnc2c(-c3nc(C4CC4)no3)cccn12` here?
Answer: Its Potency is “inactive”.

Question: With `CNC(=O)c1cccn2nccc12` as the molecule, how does the Potency read?
Answer: Its Potency is “inactive”.

Question: With `COc1cccc(NC(=O)CSc2nc(=O)[nH]c3c2CCCC3)c1` as the molecule, how does the Potency read?
Answer: Its Potency is inconclusive: 0.0501 µM [inhibitor, full curve, poor fit].

Question: With `CNC(=O)[C@@H]1CN(C(=O)CCc2cc(OC)no2)C[C@H]1c1n[nH]c(C)n1` as the molecule, how does the Potency read?
Answer: The Potency was “inactive”.

Question: For `Cc1cc(C)c(-c2n[nH]c3c2C(c2ccccc2F)N(CCO)C3=O)c(O)c1` (stereo unspecified), which Potency is on record?
Answer: The Potency was inconclusive: 10 µM [inhibitor, single point].

Question: For `Cc1c(Cl)cccc1-n1ncc(C(=O)NC2CCCC2)c1C1CCN(C(=O)OC(C)(C)C)CC1`, which Potency is on record?
Answer: Its Potency is inconclusive: 11.2 µM [inhibitor, partial curve, poor fit].

Question: Which Potency does the source give for `Cc1ccccc1NC(=O)Cn1c(=O)n(-c2ccccc2)c(=O)c2c1cc(C)n2C` here?
Answer: The Potency was inconclusive: 0.501 µM [inhibitor, full curve, poor fit].

Question: Which Potency does the source give for `CCC(C(=O)Nc1ccc2c(c1)CN(Cc1cc(F)cc(F)c1)C(=O)CO2)c1ccccc1` (stereo unspecified) here?
Answer: The Potency was active: 6.31 µM.

Question: Which Potency does the source give for `COCCCNc1ncnc2sc3c(c12)CCNC3` here?
Answer: The Potency was inconclusive: 2 µM [inhibitor, partial curve].
